# Results: article PMC12040169 (PLOS Biology, 2025)
# Some of the results follow.
# Test system: T1, C. trachomatis L2/434/Bu expressing GFP (CTL2-GFP)
# T1 construct: L2/434/Bu GFP intracellular growth in HeLa cells
# Parameters: species or system HeLa; C. trachomatis total inclusion area by high-content imaging, normalised to DMSO
# Settings: total inclusion area; 28.5 h, 10 µM; inhibitor
# In short: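 High-content images of fixed, Hoechst-stained infected cultures supply inclusion area and count (growth) plus nuclei number (viability), complementing bulk GFP/resorufin fluorescence. MIC determination is unchanged from the primary assay.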
row,Compound,% of control remaining
1,COc1ccc2c(c1)CCCN2C(=O)c1sc2ccccc2c1Cl [CBK056960],66.1721
2,Cc1nn(C)c(Cl)c1S(=O)(=O)NCc1cc(C)n(C)n1 [CBK062154],54.9744
3,CNC(=O)C1(Cc2ccc(-c3ccccc3)cc2)CCN(C(=O)COc2ccccc2)CC1 [CBK285766],98.213
4,O=C(c1ccccc1)c1ccccc1OCCO [CBK000728],116.206
5,CCCC/C=C/c1cnc2[nH]c(=O)n(CCCOC)c2n1 [CBK064540],91.1483
6,O=S(=O)(N1CCCCC1)N1CCN(CC(O)COc2ccc(-c3ccccc3)cc2)CC1 (stereo not drawn) [CBK269370],77.5831
7,O=C1COc2ccc(C(=O)CSc3nnc(C4CC4)n3C3CC3)cc2N1 [CBK297110],100.759
8,CCC(=O)Oc1ccc(/N=C2/NC(C)(C)O2)cc1 [CBK010922],84.4286
9,Cc1n[nH]c(C)c1C1COCCN1C(=O)c1cccc(F)c1 (stereo not drawn) [CBK305105],70.4476
10,Cc1ccc(S(=O)(=O)c2ccc(C)c(S(=O)(=O)N3CCC(C)CC3)c2)cc1S(=O)(=O)N1CCC(C)CC1 [CBK261743],92.775
11,CC1CN(c2cc(CNCc3cnn4ccccc34)ccn2)CCO1 (stereo not drawn) [CBK304018],91.0223
12,OC(COc1c(Br)cccc1Br)CN1CCCCC1 (stereo not drawn) [CBK003077T],36.355
13,CCN(CC)C(=O)C1CCCN(C(=O)NC(c2ccccc2)c2ccccc2)C1 (stereo not drawn) [CBK156125],113.536
14,CC(C)c1ccc(S(=O)(=O)NCc2ccc(F)c(F)c2F)cc1 [CBK044717],97.2631
15,O=C(CSc1nnc(-c2cccnc2)s1)Nc1ccc([N+](=O)[O-])cc1 [CBK268777],69.0332
16,O=C(NCC(c1ccco1)N1CCCC1)C1CCCCC1 (stereo not drawn) [CBK304560],95.5188
17,CCCCc1cc(=O)[nH]c(N2CCOCC2)n1 [CBK003851],92.7407
18,C#CCNC(=O)C1CCCN(c2nc3ccccc3n2CC)C1 (stereo not drawn) [CBK282433],116.381
19,COc1ccc(-c2cc(C(=O)Nc3nc4ccccc4[nH]3)cnc2-c2ccc(F)cc2)cn1 [CBK036617],70.1322
20,Cc1nn(C)c(C)c1S(=O)(=O)n1ccn(-c2ccc(N(C)C)cc2)c1=O [CBK106610],100.323
21,O=C(O)CCNS(=O)(=O)c1ccc2[nH]c(=O)[nH]c2c1 [CBK266906],105.519
22,O=S(=O)(Nc1ccc2[nH]ncc2c1)c1ccc(Br)cc1C(F)(F)F [CBK062529],94.7876
23,Cc1nc2c(Oc3ncccn3)cccn2c1N(C)C(=O)C1CCCCC1 [CBK147161],120.147
24,Cc1ccccc1-c1nnc(SC(C)C)n1CCN(C)CC(F)(F)F [CBK200090],99.1146
25,O=C(NCCc1c[nH]c2ccccc12)c1nn(-c2ncccn2)c2ccccc12 [CBK048496],94.4261
26,Cc1ccc2nc(-c3ccccc3)c(CN3CCCC3)c(O)c2c1 [CBK264736],98.2298

row,Compound,% of control remaining
1,O=C(NCCCN1CCOCC1)c1ccc2nccnc2c1 [CBK268704],82.7178
2,c1ccc2oc(CN3CCC(N4CCCCC4)CC3)cc2c1 [CBK282052],106.772
3,C=CCN1CCC(C(=O)NC(C)c2cc(OC)ccc2OC)CC1 (stereo not drawn) [CBK148762],94.607
4,O=C(O)COc1ccc(Br)cn1 [CBK026021],44.8839
5,O=C(O)c1ccccc1C(=O)c1ccc(Oc2ncc(C(F)(F)F)cc2Cl)cc1 [CBK161648],103.251
6,O=C1c2ccc(-c3ccc4c(c3)C(=O)N(Cc3ccco3)C4=O)cc2C(=O)N1Cc1ccco1 [CBK266578],109.086
7,Cc1noc(C)c1C(=O)N1CCC2(CC1)CC(=O)c1cc(Br)ccc1O2 [CBK156508],84.6344
8,CN1CCN(CCC(=O)N/N=C/c2c[nH]c3ccccc23)CC1 [CBK261502],97.2805
9,Cc1cnc2[nH]c(C3CCCN(C(=O)c4cn(C)nc4C)C3)cc2c1 (stereo not drawn) [CBK285170],74.9652
10,COc1ccccc1N1CCN(C(=O)Nc2cccnc2)CC1 [CBK155617],64.3538
11,COc1cc(CNCc2ccc(F)cc2)cc(Cl)c1OCC(N)=O [CBK270256C],83.665
12,CC(C)C(=O)Nc1nc2c([nH]c(=O)n2[C@H]2C[C@@H](O)[C@@H](CO)O2)c(=O)[nH]1 [CBK201202],150.701
13,CN(C)c1ncccc1OC1CCN(c2nnc(C(F)(F)F)s2)C1 (stereo not drawn) [CBK304789],68.5742
14,COc1ccccc1-n1nc(-c2ccncc2)nc1C(C)NS(C)(=O)=O (stereo not drawn) [CBK306868],89.18
15,CC(Cn1cncn1)C(=O)N1CCc2sccc2C1C (stereo not drawn) [CBK282080],79.9921
16,COc1ccc(-c2n[nH]c(=S)n2CCC(=O)NCCc2cc(C)n(-c3ccccc3)c2C)cc1 [CBK295632],120.805
17,Cc1cccc(-c2ccc(CC3(C(=O)NC(C)C)CCN(C(=O)C4CC4)CC3)cc2)c1 [CBK285757],67.381
18,C=CCn1c(Cc2csc(NC(=O)c3ccc(C)cc3)n2)n[nH]c1=S [CBK295292],132.084
19,O=C(CCCOc1ccc(Cl)cc1)n1ccn(CCc2cccs2)c1=O [CBK106614],102.475
20,O=[N+]([O-])c1nn(-c2ccc3c(c2)OCCO3)[n+]([O-])c1NCCN1CCN(c2ccccc2F)CC1 [CBK268314],60.6836
21,CS(=O)(=O)NC1CCN(C2CCc3c(Cl)cccc32)CC1 (stereo not drawn) [CBK305252],54.7131
22,O=c1c2ccccc2nc2n1CCN(Cc1ccccc1)CC2 [CBK284790],106.609
23,O=C1N=C(NC2CCCCCC2)SC1CC(=O)N1CCOC12CCCCC2 (stereo not drawn) [CBK067355],56.8078
24,CCN(CC)C(=O)CN1CCCN(c2cc(OCCN3C(=O)CCC3=O)ncn2)CC1 [CBK083266T],135.1
25,Cc1cc(NC(=O)CN2CCN(Cc3ccc4c(c3)CCO4)CC2)on1 [CBK305610],64.6704
